Assay results: PubChem BioAssay AID588342 (National Center for Advancing Translational Sciences (NCATS), 2011)
The whole screen tested about 360,000 compounds, of which about 25,000 (6.9%) were called active. Inconclusive results, whose numbers are uncertain, are shown with a selection of clear calls. Calls follow the shape of the dose curve; as a rule, active = well fitted inhibition curve with a large enough effect; inconclusive = small, poorly fitted or top-dose-only effect; inactive = flat fitted curve, though single readings scatter. Potencies beside an inconclusive call are fits to weak or partial responses and may not hold up.

target: Luciferin 4-monooxygenase (Photinus pyralis) (UniProt P08659); assay: qHTS profiling assay for firefly luciferase inhibitor/activator using purifed enzyme and Km concentrations of substrates (counterscreen for miR-21 project); settings: purified FLuc, luminescence inhibition; series mostly up to 57.5 µM; activity change, negative = inhibition: at the top concentration; also: nearly all actives have a fitted effect of over 55% in size;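 as to activity change, negative = inhibition: plate controls were vehicle for no effect and reference inhibitor for full effect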
UniProt P08659, sequence (P08659 whole entry, looked up): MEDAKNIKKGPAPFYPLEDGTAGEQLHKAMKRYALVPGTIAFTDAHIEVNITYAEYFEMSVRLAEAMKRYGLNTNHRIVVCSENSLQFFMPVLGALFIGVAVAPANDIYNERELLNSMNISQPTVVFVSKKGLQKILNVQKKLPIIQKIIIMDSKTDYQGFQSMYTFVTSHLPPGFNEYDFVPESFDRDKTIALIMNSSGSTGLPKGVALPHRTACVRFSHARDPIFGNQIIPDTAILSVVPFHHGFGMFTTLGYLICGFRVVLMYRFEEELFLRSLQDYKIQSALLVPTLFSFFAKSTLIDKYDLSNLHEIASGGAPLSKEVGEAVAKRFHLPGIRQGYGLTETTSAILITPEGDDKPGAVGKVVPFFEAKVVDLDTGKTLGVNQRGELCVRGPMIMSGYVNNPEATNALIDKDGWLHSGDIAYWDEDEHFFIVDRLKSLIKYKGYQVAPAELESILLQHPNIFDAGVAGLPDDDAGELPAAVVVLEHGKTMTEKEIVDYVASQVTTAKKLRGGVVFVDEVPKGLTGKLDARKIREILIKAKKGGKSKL
In short: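 Biochemical qHTS of compounds, final roughly 60 µM downward over six points, against 10 nM purified firefly luciferase using Km concentrations of substrates (10 uM D-luciferin, 10 uM ATP) in Tris acetate pH 7.5 buffer; luminescence output.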
Potency is read from the fitted curve at half-maximal effect; tags tell the direction and shape of the fitted curve.

| Compound | Potency | activity change, negative = inhibition |
| --- | --- | --- |
| O=C(NCCO)c1ccc2nc(-c3ccco3)c(-c3ccco3)nc2c1 | active: 15.1 µM | – |
| COc1ccc(/C=N/NC(=O)C(=O)N2CCCCCC2)cc1O | – | inactive: -5.15% |
| Cc1cccc(-c2noc(-c3ccoc3C)n2)c1 | active: 4.78 µM | – |
| Cc1cccn2cc(COc3ccc(-c4ccccc4)cc3)nc12 | active: 9.53 µM | – |
| CC1=NN(c2ccccc2)C(=O)C1C=Nc1ccccc1O (configuration not stated) | inconclusive: 37.9 µM [inhibitor, single point] | – |
| Cc1ccnc(N2C(=O)c3ccc([N+](=O)[O-])cc3C2=O)c1 | – | inactive: -0.44% |
| O=C(CN1CCCC1)Nc1ccc(-c2nc3cc(NC(=O)CN4CCCC4)ccc3o2)cc1 | inconclusive: 21.3 µM [inhibitor, single point] | – |
| CCCCn1c(Oc2ccc(C(=O)OC)cc2)nc2c1c(=O)n(C)c(=O)n2C | – | inactive: -1.39% |
| CC(=O)c1cccc(NC(=S)NC2CCCCC2)c1 | inconclusive: 37.9 µM [inhibitor, partial curve, poor fit] | – |
| CC(=O)c1ccc(NS(=O)(=O)c2cccc(C)c2)cc1 | inconclusive: 23.9 µM [inhibitor, single point] | – |
| CCOc1cc(C(=O)NC(=S)Nc2ccc(Cl)c(C(=O)O)c2)cc(OCC)c1OCC | – | inactive: -0.927% |
| O=C(Nc1ccc(F)cc1)c1nsc(Cl)c1Cl | active: 4.78 µM | – |
| COc1ccc(-c2nn(-c3ccccc3)cc2C(=O)Nc2cccc(C(=O)O)c2)cc1[N+](=O)[O-] | inconclusive: 37.9 µM [inhibitor, partial curve, poor fit] | – |
| CN(C)/C=C/C(=O)c1ccc(C(F)(F)F)cc1F | inconclusive: 37.9 µM [inhibitor, partial curve, poor fit] | – |
| CN1C(=S)N(c2cccnc2)C(=O)/C1=C\c1ccc(N(C)C)cc1 | inconclusive: 13.5 µM [inhibitor, partial curve, poor fit] | – |
| COc1cc(OC)c(C(=O)Nc2cccc3ccccc23)cc1OC | active: 19 µM | – |
| CC(Oc1ccccc1F)C(=O)NNC(=O)c1cc2ccccc2o1 (configuration not stated) | inconclusive: 23.9 µM [inhibitor, partial curve, poor fit] | – |
| COc1ccc(CCNC(=O)c2cc(=O)c3cc(C)c(C)cc3o2)cc1OC | – | inactive: -1.23% |
| O=C1/C(=C/c2ccc(F)cc2)CCC1C1CCCC1 (configuration not stated) | active: 0.675 µM | – |
| CCn1cc(CNC(=O)NC2CCCCC2)c(C)n1 | inconclusive: 37.9 µM [inhibitor, partial curve, poor fit] | – |
| O=C(OC(C(=O)Nc1cccc(C(F)(F)F)c1)c1ccccc1)C1CCCCC1 (configuration not stated) | – | inactive: 4.85% |
| Cc1cccc(/C=N/NC(=O)CNc2cccc3ccccc23)n1 | inconclusive: 26.9 µM [inhibitor, single point] | – |
| CNC(=O)C1CCC(Cn2c(=O)c3sccc3n(CC(=O)N3CCC(C)CC3)c2=O)CC1 (configuration not stated) | – | inactive: -1.2% |
| Cc1ccc(-n2c(N)c(C(N)=O)sc2=S)cc1 | inconclusive: 26.9 µM [inhibitor, partial curve, poor fit] | – |

| Compound | Potency | activity change, negative = inhibition |
| --- | --- | --- |
| Cn1c(=O)c(/C=C/c2ccc(F)cc2)nc2ccccc21 | active: 6.75 µM | – |
| c1ccc(-c2nc3cnccn3c2Nc2ccc3c(c2)OCCO3)cc1 | inconclusive: 23.9 µM [inhibitor, partial curve, poor fit] | – |
| Cc1ccc2nc(Cl)c3cc(C(=O)N4CCCCC4)sc3c2c1 | inconclusive: 21.3 µM [inhibitor, partial curve, poor fit] | – |
| Cc1ccc(C(=O)CCC(=O)OCC(=O)Nc2nnc(-c3ccccc3)o2)cc1 | inconclusive: 21.3 µM [inhibitor, single point] | – |
| Cc1ccc(Nc2ncnc3sccc23)c(C)c1 | inconclusive: 26.9 µM [inhibitor, partial curve] | – |
| O=C(Nc1ccc(NC(=O)c2ccco2)cc1)c1ccc2c(c1)OCO2 | – | inactive: 0.128% |
| Cc1csc(NC(=O)c2cc3c(s2)-c2ccccc2OC3)n1 | inconclusive: 1.9 µM [inhibitor, full curve] | – |
| Cc1cc2cc(C(c3nnnn3Cc3ccco3)N3CCc4ccccc4C3)c(=O)[nH]c2cc1C (configuration not stated) | inconclusive: 37.9 µM [inhibitor, partial curve, poor fit] | – |
| CC1CN(C(=O)c2cc3cc(F)ccc3[nH]2)CC(C)O1 (configuration not stated) | inconclusive: 23.9 µM [inhibitor, partial curve, poor fit] | – |
| Cc1ccc(NC(=O)CN2C(=O)S/C(=C/c3ccc(-c4cccc(C(=O)O)c4)o3)C2=O)cc1 | active: 21.3 µM | – |
| CCN1CCN(Cc2ccc(NC(=O)c3ccc(C)c(NC(=O)c4c[nH]c5cc(C(F)(F)F)ccc5c4=O)c3)cc2C(F)(F)F)CC1 | inconclusive: 8.49 µM [inhibitor, partial curve, poor fit] | – |
| O=C(/C=C/Nc1cccc(O)c1)c1ccccc1 | active: 0.169 µM | – |
| Cc1cc(C)c2nc(-c3ccccn3)cc(C(=O)Nc3ccc(S(=O)(=O)Nc4cc(C)on4)cc3)c2c1 | inconclusive: 26.9 µM [inhibitor, partial curve, poor fit] | – |
| Nc1ccc2oc(-c3cc(Br)ccc3Cl)nc2c1 | inconclusive: 12 µM [inhibitor, partial curve] | – |
| Cc1oc(-c2ccc(Cl)cc2)nc1Cn1c(=O)cc(C)c2c(C)nn(-c3ccccc3)c21 | – | inactive: -0.627% |
| CCOCC(=O)Nc1cc(C(=O)Nc2cc(C)cc(C)c2)ccc1Cl | inconclusive: 6.75 µM [inhibitor, partial curve, poor fit] | – |
| COc1ccccc1CNC(=O)CCCCn1c(=O)c2ccccc2n(Cc2ccccc2F)c1=O | – | inactive: -3.92% |
| COc1ccc(NC(=O)Nc2cccc(C(F)(F)F)c2)cn1 | inconclusive: 26.9 µM [inhibitor, partial curve, poor fit] | – |
| CCC(C)NC(=O)CN(c1ccc(OC)cc1)S(=O)(=O)c1ccccc1 (configuration not stated) | inconclusive: 37.9 µM [inhibitor, single point] | – |
| CCCOc1ccc(C(=O)NC(=S)Nc2nc(C)c(C(=O)N(C)C)s2)cc1 | inconclusive: 30.1 µM [inhibitor, single point] | – |
| CCOCCCNC(=O)c1ccc(Br)cc1 | inconclusive: 26.9 µM [inhibitor, partial curve, poor fit] | – |
| O=C(COC(=O)c1cc(=O)[nH]c2ccccc12)c1ccc(Br)cc1 | inconclusive: 0.536 µM [inhibitor, full curve] | – |
| CN(C)/C=C/C(=O)c1ccc(Br)cc1 | inconclusive: 26.9 µM [inhibitor, single point] | – |
| COc1ccc(-c2nc(SCC(=O)N3CCOCC3)n[nH]2)cc1 | inconclusive: 26.9 µM [inhibitor, partial curve] | – |

| Compound | Potency | activity change, negative = inhibition |
| --- | --- | --- |
| Cc1nn2cc(-c3ccc(OC(C)C)cc3)nc2s1 | active: 1.35 µM | – |
| CCOc1ccc(C(=O)OCC(=O)NC2CCCC2)cc1OCC | inconclusive: 26.9 µM [inhibitor, partial curve] | – |
| CCc1ccc(OCC(=O)NC(C)(C)C)cc1 | inconclusive: 19 µM [inhibitor, partial curve, poor fit] | – |
| CCN(CC)CCCNc1nc2ccccc2c2nc(-c3ccncc3)nn12 | – | inactive: 2.85% |
| CCc1sc(C(=O)NC(C)C2CCCO2)cc1Br (configuration not stated) | inconclusive: 13.5 µM [inhibitor, partial curve] | – |
| CCN=c1scc(-c2ccco2)n1/N=C/c1ccc(O)cc1 | active: 6.75 µM | – |
| C=CCN1CCN(C(=O)c2oc3ccccc3c2C)CC1 | – | inactive: -12.4% |
| COc1ccc(-c2cc(C(=O)N3CCCCCC3)c3ccccc3n2)cc1 | active: 6.75 µM | – |
| CCOC(=O)c1cnc2ccc(OCC)cc2c1NCc1ccccc1 | inconclusive: 19 µM [inhibitor, partial curve] | – |
| O=C(NCc1cccc(F)c1)c1ccccc1NC(=O)c1nsc2ccccc12 | inconclusive: 26.9 µM [inhibitor, partial curve, poor fit] | – |
| CCN(CC(=O)Nc1ccccc1C(F)(F)F)C(=O)c1oc2ccc(OC)cc2c1C | active: 16.9 µM | – |
| Cc1cc(C(=O)Nc2ccc(Cl)cc2)on1 | inconclusive: 37.9 µM [inhibitor, partial curve, poor fit] | – |
| CN(C)S(=O)(=O)c1ccc(C(=O)NCCOc2ccccc2)cc1 | active: 13.5 µM | – |
| CC(=O)Nc1nc(-c2ccc3c(c2)OCO3)cs1 | active: 9.53 µM | – |
| COc1ccc(-c2csc3ncnc(N4CCN(S(=O)(=O)c5ccc(Cl)s5)CC4)c23)cc1 | – | inactive: -0.355% |
| CCC1(c2ccccc2)NC(=O)N(CC(=O)NNC(=O)COc2ccc(Cl)cc2C)C1=O (configuration not stated) | inconclusive: 30.1 µM [inhibitor, single point] | – |
| COc1ccc(-c2nc3ccccc3nc2-c2ccccc2)cc1OC | – | inactive: 4.61% |
| Cc1cccc(C)c1NC(=O)COc1ccc2c(C)c(Cc3ccccc3)c(=O)oc2c1 | – | inactive: 3.49% |
| Cc1cc(C(=O)NNC(=O)Nc2ccc(Cl)cc2)no1 | – | inactive: -2.47% |
| O=C(Cc1ccccc1)Nc1ccccc1C(=O)N1CCN(c2ccccc2)CC1 | – | inactive: 5.4% |
| COc1ccc(Cn2c(C3CC3)nc3ccc(NC(=O)c4cccnc4)cc3c2=O)cc1 | inconclusive: 37.9 µM [inhibitor, single point] | – |
| Cc1cc(C)cc(NC(=O)c2ccc(CNc3c(N4CCCC4)c(=O)c3=O)cc2)c1 | inconclusive: 37.9 µM [inhibitor, partial curve, poor fit] | – |
| CCc1cccc(C)c1NS(=O)(=O)c1ccc2c(c1)CC(C)N2C(=O)C1CC1 (configuration not stated) | inconclusive: 33.8 µM [inhibitor, partial curve, poor fit] | – |
| COc1ccc(S(=O)(=O)N2CCOCC2)cc1NC(=O)Cc1c(Cl)cccc1Cl | – | inactive: 3.3% |
